# Results as given in the supplement of paper PMC8728848.
# Some of the results follow.
# B1: Cel5A (Cellvibrio mixtus), A0A266Q9Z0 (protein)
# chain: TSVAGCSGVTAWNSTAVYTGGNEVVRNGVKYQAKWWTQGQDPVTNSSADGVWANKGQC
# Assays:
# Experiment in all cases: glycan array binding signal (z-score within array); higher = stronger binding
# Settings in all cases: glycan notation: IUPAC condensed, linker removed
# Glc(a1-2)Glc = target: Glc(a1-2)Glc
# Summary of the method: (§1)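 From the Consortium for Functional Glycomics database, 3228 arrays were curated, keeping only those whose protein sequence was available. Binding is given as a within-array Z-score averaged across arrays sharing a protein sequence and across linkers. Negative Z-scores can be read as non-binding.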
# Glc(a1-2)Glc(a1-2)Glc = target: Glc(a1-2)Glc(a1-2)Glc
# Summary of the method: as §1
# [1] = target: Glc(a1-2)Glc(a1-2)Glc(a1-2)Glc
# Summary of the method: as §1
# [2] = target: Glc(a1-2)Glc(a1-2)Glc(a1-2)Glc(a1-2)Glc
# Summary of the method: as §1
# [3] = target: Glc(a1-2)Glc(a1-2)Glc(a1-2)Glc(a1-2)Glc(a1-2)Glc
# Summary of the method: as §1
# [4] = target: Glc(a1-2)Glc(a1-2)Glc(a1-2)Glc(a1-2)Glc(a1-2)Glc(a1-2)Glc
# Summary of the method: as §1
# [5] = target: Glc(a1-2)Glc(a1-2)Glc(a1-2)Glc(a1-2)Glc(a1-2)Glc(a1-2)Glc(a1-2)Glc
# Summary of the method: as §1
# [6] = target: Glc(a1-2)Glc(a1-2)Glc(a1-2)Glc(a1-2)Glc(a1-2)Glc(a1-2)Glc(a1-2)Glc(a1-2)Glc
# Summary of the method: as §1
# Glc(a1-3)Glc = target: Glc(a1-3)Glc
# Summary of the method: as §1
# Glc(a1-3)Glc(a1-3)Glc = target: Glc(a1-3)Glc(a1-3)Glc
# Summary of the method: as §1
# [7] = target: Glc(a1-3)Glc(a1-3)Glc(a1-3)Glc
# Summary of the method: as §1
# [8] = target: Glc(a1-3)Glc(a1-3)Glc(a1-3)Glc(a1-3)Glc
# Summary of the method: as §1
# [9] = target: Glc(a1-3)Glc(a1-3)Glc(a1-3)Glc(a1-3)Glc(a1-3)Glc
# Summary of the method: as §1
# [10] = target: Glc(a1-3)Glc(a1-3)Glc(a1-3)Glc(a1-3)Glc(a1-3)Glc(a1-3)Glc
# Summary of the method: as §1
# [11] = target: Glc(a1-3)Glc(a1-3)Glc(a1-3)Glc(a1-3)Glc(a1-3)Glc(a1-3)Glc(a1-3)Glc
# Summary of the method: as §1
# [12] = target: Glc(a1-3)Glc(a1-3)Glc(a1-3)Glc(a1-3)Glc(a1-3)Glc(a1-3)Glc(a1-3)Glc(a1-3)Glc
# Summary of the method: as §1
# [13] = target: Glc(a1-3)Glc(a1-3)Glc(a1-3)Glc(a1-3)Glc(a1-3)Glc(a1-3)Glc(a1-3)Glc(a1-3)Glc(a1-3)Glc
# Summary of the method: as §1
# [14] = target: Glc(a1-3)Glc(a1-3)Glc(a1-3)Glc(a1-3)Glc(a1-3)Glc(a1-3)Glc(a1-3)Glc(a1-3)Glc(a1-3)Glc(a1-3)Glc
# Summary of the method: as §1
# [15] = target: Glc(a1-3)Glc(a1-3)Glc(a1-3)Glc(a1-3)Glc(a1-3)Glc(a1-3)Glc(a1-3)Glc(a1-3)Glc(a1-3)Glc(a1-3)Glc(a1-3)Glc
# Summary of the method: as §1
# [16] = target: Glc(a1-3)Glc(a1-3)Glc(a1-3)Glc(a1-3)Glc(a1-3)Glc(a1-3)Glc(a1-3)Glc(a1-3)Glc(a1-3)Glc(a1-3)Glc(a1-3)Glc(a1-3)Glc
# Summary of the method: as §1
# Glc(a1-4)Glc = target: Glc(a1-4)Glc
# Summary of the method: as §1
# Glc(a1-4)Glc(a1-4)Glc = target: Glc(a1-4)Glc(a1-4)Glc
# Summary of the method: as §1
# [17] = target: Glc(a1-4)Glc(a1-4)Glc(a1-4)Glc
# Summary of the method: as §1
# [18] = target: Glc(a1-4)Glc(a1-4)Glc(a1-4)Glc(a1-4)Glc
# Summary of the method: as §1
# [19] = target: Glc(a1-4)Glc(a1-4)Glc(a1-4)Glc(a1-4)Glc(a1-4)Glc
# Summary of the method: as §1
# [20] = target: Glc(a1-4)Glc(a1-4)Glc(a1-4)Glc(a1-4)Glc(a1-4)Glc(a1-4)Glc
# Summary of the method: as §1
# [21] = target: Glc(a1-4)Glc(a1-4)Glc(a1-4)Glc(a1-4)Glc(a1-4)Glc(a1-4)Glc(a1-4)Glc
# Summary of the method: as §1
# [22] = target: Glc(a1-4)Glc(a1-4)Glc(a1-4)Glc(a1-4)Glc(a1-4)Glc(a1-4)Glc(a1-4)Glc(a1-4)Glc
# Summary of the method: as §1
# [23] = target: Glc(a1-4)Glc(a1-4)Glc(a1-4)Glc(a1-4)Glc(a1-4)Glc(a1-4)Glc(a1-4)Glc(a1-4)Glc(a1-4)Glc
# Summary of the method: as §1
# [24] = target: Glc(a1-4)Glc(a1-4)Glc(a1-4)Glc(a1-4)Glc(a1-4)Glc(a1-4)Glc(a1-4)Glc(a1-4)Glc(a1-4)Glc(a1-4)Glc
# Summary of the method: as §1
# [25] = target: Glc(a1-4)Glc(a1-4)Glc(a1-4)Glc(a1-4)Glc(a1-4)Glc(a1-4)Glc(a1-4)Glc(a1-4)Glc(a1-4)Glc(a1-4)Glc(a1-4)Glc
# Summary of the method: as §1
# [26] = target: Glc(a1-4)Glc(a1-4)Glc(a1-4)Glc(a1-4)Glc(a1-4)Glc(a1-4)Glc(a1-4)Glc(a1-4)Glc(a1-4)Glc(a1-4)Glc(a1-4)Glc(a1-4)Glc
# Summary of the method: as §1
# Glc(a1-4)Glc(a1-6)Glc = target: Glc(a1-4)Glc(a1-6)Glc
# Summary of the method: as §1
# Glc(a1-6)Glc = target: Glc(a1-6)Glc
# Summary of the method: as §1
# Glc(a1-6)Glc(a1-4)Glc = target: Glc(a1-6)Glc(a1-4)Glc
# Summary of the method: as §1
# [27] = target: Glc(a1-6)Glc(a1-4)Glc(a1-4)Glc
# Summary of the method: as §1
# [28] = target: Glc(a1-6)Glc(a1-4)Glc(a1-4)Glc(a1-6)Glc(a1-4)Glc(a1-4)Glc
# Summary of the method: as §1
# Glc(a1-6)Glc(a1-6)Glc = target: Glc(a1-6)Glc(a1-6)Glc
# Summary of the method: as §1
# [29] = target: Glc(a1-6)Glc(a1-6)Glc(a1-6)Glc
# Summary of the method: as §1
# [30] = target: Glc(a1-6)Glc(a1-6)Glc(a1-6)Glc(a1-6)Glc
# Summary of the method: as §1
# [31] = target: Glc(a1-6)Glc(a1-6)Glc(a1-6)Glc(a1-6)Glc(a1-6)Glc
# Summary of the method: as §1
# [32] = target: Glc(a1-6)Glc(a1-6)Glc(a1-6)Glc(a1-6)Glc(a1-6)Glc(a1-6)Glc
# Summary of the method: as §1
# [33] = target: Glc(a1-6)Glc(a1-6)Glc(a1-6)Glc(a1-6)Glc(a1-6)Glc(a1-6)Glc(a1-6)Glc
# Summary of the method: as §1
# [34] = target: Glc(a1-6)Glc(a1-6)Glc(a1-6)Glc(a1-6)Glc(a1-6)Glc(a1-6)Glc(a1-6)Glc(a1-6)Glc
# Summary of the method: as §1
# [35] = target: Glc(a1-6)Glc(a1-6)Glc(a1-6)Glc(a1-6)Glc(a1-6)Glc(a1-6)Glc(a1-6)Glc(a1-6)Glc(a1-6)Glc
# Summary of the method: as §1
# [36] = target: Glc(a1-6)Glc(a1-6)Glc(a1-6)Glc(a1-6)Glc(a1-6)Glc(a1-6)Glc(a1-6)Glc(a1-6)Glc(a1-6)Glc(a1-6)Glc
# Summary of the method: as §1
# [37] = target: Glc(a1-6)Glc(a1-6)Glc(a1-6)Glc(a1-6)Glc(a1-6)Glc(a1-6)Glc(a1-6)Glc(a1-6)Glc(a1-6)Glc(a1-6)Glc(a1-6)Glc
# Summary of the method: as §1
# [38] = target: Glc(a1-6)Glc(a1-6)Glc(a1-6)Glc(a1-6)Glc(a1-6)Glc(a1-6)Glc(a1-6)Glc(a1-6)Glc(a1-6)Glc(a1-6)Glc(a1-6)Glc(a1-6)Glc
# Summary of the method: as §1
# Glc(b1-2)Glc = target: Glc(b1-2)Glc
# Summary of the method: as §1
# Glc(b1-2)Glc(b1-2)Glc = target: Glc(b1-2)Glc(b1-2)Glc
# Summary of the method: as §1
# [39] = target: Glc(b1-2)Glc(b1-2)Glc(b1-2)Glc
# Summary of the method: as §1
# [40] = target: Glc(b1-2)Glc(b1-2)Glc(b1-2)Glc(b1-2)Glc
# Summary of the method: as §1
# [41] = target: Glc(b1-2)Glc(b1-2)Glc(b1-2)Glc(b1-2)Glc(b1-2)Glc
# Summary of the method: as §1
# [42] = target: Glc(b1-2)Glc(b1-2)Glc(b1-2)Glc(b1-2)Glc(b1-2)Glc(b1-2)Glc
# Summary of the method: as §1
# [43] = target: Glc(b1-2)Glc(b1-2)Glc(b1-2)Glc(b1-2)Glc(b1-2)Glc(b1-2)Glc(b1-2)Glc
# Summary of the method: as §1
# [44] = target: Glc(b1-2)Glc(b1-2)Glc(b1-2)Glc(b1-2)Glc(b1-2)Glc(b1-2)Glc(b1-2)Glc(b1-2)Glc
# Summary of the method: as §1
# [45] = target: Glc(b1-2)Glc(b1-2)Glc(b1-2)Glc(b1-2)Glc(b1-2)Glc(b1-2)Glc(b1-2)Glc(b1-2)Glc(b1-2)Glc
# Summary of the method: as §1
binder,measurement,setting,value
B1,glycan array binding signal (z-score),Glc(a1-2)Glc,-0.981
same,glycan array binding signal (z-score),Glc(a1-2)Glc(a1-2)Glc,-0.994
same,glycan array binding signal (z-score),[1],-0.992
same,glycan array binding signal (z-score),[2],-0.985
same,glycan array binding signal (z-score),[3],-0.985
same,glycan array binding signal (z-score),[4],-0.989
same,glycan array binding signal (z-score),[5],-0.986
same,glycan array binding signal (z-score),[6],-0.981
same,glycan array binding signal (z-score),Glc(a1-3)Glc,-0.931
same,glycan array binding signal (z-score),Glc(a1-3)Glc(a1-3)Glc,-0.977
same,glycan array binding signal (z-score),[7],-0.956
same,glycan array binding signal (z-score),[8],-0.971
same,glycan array binding signal (z-score),[9],-0.941
same,glycan array binding signal (z-score),[10],-0.928
same,glycan array binding signal (z-score),[11],-0.919
same,glycan array binding signal (z-score),[12],-0.914
same,glycan array binding signal (z-score),[13],-0.925
same,glycan array binding signal (z-score),[14],-0.954
same,glycan array binding signal (z-score),[15],-0.946
same,glycan array binding signal (z-score),[16],-0.942
same,glycan array binding signal (z-score),Glc(a1-4)Glc,-0.943
same,glycan array binding signal (z-score),Glc(a1-4)Glc(a1-4)Glc,-0.961
same,glycan array binding signal (z-score),[17],-0.94
same,glycan array binding signal (z-score),[18],-0.949
same,glycan array binding signal (z-score),[19],-0.945
same,glycan array binding signal (z-score),[20],-0.941
same,glycan array binding signal (z-score),[21],-0.942
same,glycan array binding signal (z-score),[22],-0.95
same,glycan array binding signal (z-score),[23],-0.936
same,glycan array binding signal (z-score),[24],-0.924
same,glycan array binding signal (z-score),[25],-0.938
same,glycan array binding signal (z-score),[26],-0.916
same,glycan array binding signal (z-score),Glc(a1-4)Glc(a1-6)Glc,-0.994
same,glycan array binding signal (z-score),Glc(a1-6)Glc,-0.913
same,glycan array binding signal (z-score),Glc(a1-6)Glc(a1-4)Glc,-0.994
same,glycan array binding signal (z-score),[27],-0.994
same,glycan array binding signal (z-score),[28],-0.994
same,glycan array binding signal (z-score),Glc(a1-6)Glc(a1-6)Glc,-0.942
same,glycan array binding signal (z-score),[29],-0.93
same,glycan array binding signal (z-score),[30],-0.943
same,glycan array binding signal (z-score),[31],-0.937
same,glycan array binding signal (z-score),[32],-0.926
same,glycan array binding signal (z-score),[33],-0.928
same,glycan array binding signal (z-score),[34],-0.913
same,glycan array binding signal (z-score),[35],-0.931
same,glycan array binding signal (z-score),[36],-0.864
same,glycan array binding signal (z-score),[37],-0.928
same,glycan array binding signal (z-score),[38],-0.949
same,glycan array binding signal (z-score),Glc(b1-2)Glc,-0.411
same,glycan array binding signal (z-score),Glc(b1-2)Glc(b1-2)Glc,0.043
same,glycan array binding signal (z-score),[39],0.32
same,glycan array binding signal (z-score),[40],1.16
same,glycan array binding signal (z-score),[41],1.32
same,glycan array binding signal (z-score),[42],0.965
same,glycan array binding signal (z-score),[43],0.862
same,glycan array binding signal (z-score),[44],1.65
same,glycan array binding signal (z-score),[45],1.26
